What was measured:
[1] = test system: MOLP-8 cells expressing CD39; experiment: Affinity activity of ADCs for positive tumor cells (flow cytometry); type: binding, human; settings: 4 °C, FIG. 4
Procedure: MOLP-8 is a human multiple myeloma cell line which naturally expresses human CD39 on its cell surface, and is used for detecting the affinity activity and endocytosis activity of anti-CD39 antibody-drug conjugates on positive tumor cells.
Each ADC or antibody sample to be tested was diluted to an initial concentration of 20 μg/mL with 1×PBS, then diluted in a 3-fold gradient to give a total of 7 concentration points, and added into a 96-well V-bottom plate at 50 μL/well, and meanwhile, zero-concentration control wells (i.e., containing complete medium without the ADC or antibody sample to be tested) were set. MOLP-8 cells (DSMZ) were collected, resuspended to 8.0×10^6 cells/mL with 1×PBS, and then added into the above 96-well plate at 50 μL/well. The mixture was well mixed and then incubated at 4° C. for 0.5 h. Washing: 1×PBS was added at 100 μL/well, and the mixture was centrifuged at 2000 rpm for 7 min, followed by removal of the supernatant; 1×PBS was further added at 200 μL/well, and the mixture was well mixed by pipetting and then centrifuged at 2000 rpm for 7 min, followed by removal of the supernatant. […] 1×PBS was added at 200 μL/well to resuspend the cells, and the resuspended cells were analyzed on a flow cytometer.

DB cells = experiment: In-vitro killing activity of ADCs against positive tumor cells (CCK-8 cell viability); type: cell-based, human; settings: 60-96 h, FIG. 1
Procedure: DB is a human follicular lymphoma cell line which naturally expresses human CD39 on its cell surface, and is used for detecting the in-vitro killing activity effect of anti-CD39 antibody-drug conjugates against positive tumor cells. Each ADC or antibody sample to be tested was diluted to an initial concentration of 6.67 μg/mL with a 1640+10% FBS (Gibco) complete medium, then diluted in a 3-fold gradient to give a total of 5 concentration points, and added into a 96-well cell plate at 100 μL/well, and zero-concentration control wells (i.e., containing complete medium without the ADC or antibody sample to be tested) were set. DB cells (Nanjing Cobioer Biosciences Co., Ltd.) in logarithmic growth phase were collected, diluted to (0.8-1.2)×10^5 cells/mL with a 1640+10% FBS (Gibco) complete medium, and then added into the above 96-well plate at 100 μL/well. The 96-well plate was placed in a CO2 incubator at 37° C. and left to stand for 60-96 h. CCK-8 (Dojindo Laboratories, CK04) was then added at 20 μL/well, and the mixture was incubated for 4-6 h of color development. The OD450 nm readings were then detected by using a multi-mode microplate reader (Molecular Devices). Calculation formula for cell viability (%): ODsample well/ODcontrol well×100%.

Mino cells = experiment: In-vivo anti-tumor activity of ADCs in the Mino mantle cell lymphoma model; settings: Mino cells in CB17/SCID mice; 10 mg/kg, intraperitoneal injection twice a week for 6 times from Day 0; FIG. 2
Source text: Mino is a human mantle cell lymphoma cell line which naturally expresses human CD39 on its cell surface, and the cells are inoculated to CB17/SCID mice to establish a mantle cell lymphoma model for detecting the in-vivo anti-tumor effects of anti-CD39 antibody-drug conjugates.
5×10^6 Mino cells (ATCC) (plus 50% Matrigel, Thermo Fisher) were inoculated into the right ventral side of CB17/SCID mice (Shanghai Slac Laboratory Animal Co., Ltd., aged 6-8 weeks). When the tumor volume reached the average value of about 90 mm^3, the mice were divided into groups, and the day of grouping was recorded as Day 0. The blank control group and F314 group were subjected to administration starting on Day 0, with 5 animals in each group, wherein the administration was performed by intraperitoneal injection twice a week for 6 times consecutively. The dose for the F314 group was 10 mg/kg, and the blank control group was injected with an equal volume of PBS. […] The length and width of the tumor were measured with a vernier caliper, and the tumor volume was calculated using the formula TV=(length×width^2)/2. […]

SKOV-3 cells = experiment: In-vitro killing activity of ADCs against negative tumor cells (CCK-8 cell viability); type: cell-based, human; settings: 60-96 h, FIG. 3
Source text: Provided are certain methods for preparing antibody-cytotoxic drug conjugates or pharmaceutically acceptable salts or solvates thereof. The ADC of general formula I can be prepared by several routes using organic chemical reactions, conditions and reagents known to those skilled in the art, including: (1) reacting a nucleophilic group of an antibody with a bivalent linker reagent via a covalent bond to form Ab-L, and then reacting Ab-L with a drug module D; and (2) reacting the nucleophilic group of the drug module with the bivalent linker reagent via a covalent bond to form D-L, and then reacting D-L with the nucleophilic group of the antibody.
Each ADC or antibody sample to be tested was diluted to an initial concentration of 6.67 μg/mL with McCoy's 5A+10% FBS complete medium, then diluted in a 3-fold gradient to give a total of 5 concentration points, and added into a 96-well cell plate at 100 μL/well, and zero-concentration control wells (i.e., containing complete medium without the ADC or antibody sample to be tested) were set. SKOV-3 cells (ATCC) in logarithmic growth phase were collected, diluted to (0.8-1.2)×10^5 cells/mL with McCoy's 5A+10% FBS complete medium, and then added into the above 96-well plate at 100 μL/well. […] The OD450 nm readings were then detected by using a multi-mode microplate reader. […]

B1: F314 (antibody)
heavy: QVQLVQSGAEVKKPGASVKVSCKASGYTFTNYWMYWVRQRPGRGLEWIGRIAPSSGATKYNEKFKNRATLTVDTSISTAYMELSRLRSDDTAVYYCARSGIYYDYDWFFDVWGQGTTVTVSSASTKGPSVFPLAPCSRSTSESTAALGCLVKDYFPEPVTVSWNSGALTSGVHTFPAVLQSSGLYSLSSVVTVPSSSLGTKTYTCNVDHKPSNTKVDKRV[omitted - human IgG4 Fc with S228P (EU numbers)]
light: DIQMTQSPSSLSASVGDRVTITCKASQDINKYIGWYQQKPGKAPKLLIHYTSTLQPGVPSRFSGSGSGRDYTFTISSLQPEDIATYYCLQYHALLFTFGQGTKLEIKRTVAAPSVFIFPPSDEQLKSGTASVVCLLNNFYPREAKVQWKVDNALQSGNSQESVTEQDSKDSTYSLSSTLTLSKADYEKHKVYACEVTHQGLSSPVTKSFNRGEC
[1]
  affinity for MOLP-8 cells expressing CD39: exhibited an affinity
DB cells
  in-vitro killing effect against DB tumor cells positive to antigen expression: no direct killing effect
Mino cells
  anti-tumor effect (tumor volume): did not exhibit anti-tumor effect
SKOV-3 cells
  in-vitro killing effect against SKOV-3 tumor cells that do not express human CD39: no killing effect

From US20250049941A1, “ANTI-CD39 Antibody-Drug Conjugate And Use Thereof” (priority 2021, published 2025)
